Source: PubChem BioAssay AID1477 (National Center for Advancing Translational Sciences (NCATS), 2009)
In all, about 230,000 compounds went through this assay and fewer than 10 were called active. This list was built around the results that the source calls inconclusive (neither active nor inactive); the mix of calls is not that of the screen. Calls follow the shape of the dose curve; as a rule, active = well fitted curve in the direction sought with a large enough effect; inconclusive = small, poorly fitted or top-dose-only effect, or effect the other way, or another doubt; inactive = no such curve, though single readings can be large or run the other way. No potency is given beside an inconclusive call; the fits are too rough.

Each compound was assayed against Runt-related transcription factor 1 (Homo sapiens) + Core-binding factor subunit beta (Homo sapiens) (UniProt Q01196+Q13951) (assay: qHTS Assay for Compounds Blocking the Interaction Between CBF-beta and RUNX1 for the Treatment of Acute Myeloid Leukemia). Details: AlphaScreen CBFb-His/RUNX1-biotin binding, biochemical; series mostly up to 59.8 µM.
UniProt Q01196, sequence (Q01196 whole entry, looked up): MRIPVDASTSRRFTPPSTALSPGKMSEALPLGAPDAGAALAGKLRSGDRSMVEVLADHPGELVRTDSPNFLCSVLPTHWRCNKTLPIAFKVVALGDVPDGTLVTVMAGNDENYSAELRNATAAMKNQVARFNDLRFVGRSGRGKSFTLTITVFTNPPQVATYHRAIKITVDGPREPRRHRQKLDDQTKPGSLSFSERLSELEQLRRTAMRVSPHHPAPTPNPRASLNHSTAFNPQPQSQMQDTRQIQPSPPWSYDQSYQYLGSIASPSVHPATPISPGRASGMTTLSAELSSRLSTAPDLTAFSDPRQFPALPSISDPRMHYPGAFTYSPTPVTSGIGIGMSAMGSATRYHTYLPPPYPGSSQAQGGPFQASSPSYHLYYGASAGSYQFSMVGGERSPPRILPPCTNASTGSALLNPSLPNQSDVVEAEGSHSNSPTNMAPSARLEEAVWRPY
UniProt Q01196, sequence (Q13951 whole entry, looked up): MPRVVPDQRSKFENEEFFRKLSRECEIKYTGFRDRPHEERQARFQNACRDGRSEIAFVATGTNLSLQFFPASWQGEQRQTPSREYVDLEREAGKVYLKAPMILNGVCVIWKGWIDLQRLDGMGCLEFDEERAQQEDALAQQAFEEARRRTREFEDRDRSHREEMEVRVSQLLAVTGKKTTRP
Summary of the method: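 Read-out: AlphaScreen. Format: His-CBF-beta with biotinylated RUNX1 (30 nM each) preincubated 20 min, compound 15 min, Ni-chelate plus streptavidin beads 90 min; room temperature throughout.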
`CCOc1ccccc1-n1nnnc1SCC(=O)NC(=O)NCc1ccco1` was tested, and the Potency was inconclusive [inhibitor, single point].
In the case of `CCOC(=O)C1=C(c2ccccc2)c2ccccc2OC1C(=O)OCC` (centres undefined), the Potency is reported as inconclusive [activator, partial curve].
With `COc1ccc(CNC(=O)c2ccc(Cn3nc(C)c([N+](=O)[O-])c3C)o2)cc1` the Potency was inconclusive [inhibitor, partial curve].
For `Cc1ccc(S(=O)(=O)N2CCCCC2)cc1NC(=O)CSc1nnnn1C`, the Potency was inconclusive [activator, single point].
With `COc1ccc(CC(=O)NCc2nn(-c3ccccc3)nc2C)cc1OC` the Potency was “inactive”.
`Cc1ccc(NC(=O)C(NC2CCCc3ccccc32)c2ccccc2)cc1Cl` (centres undefined) was tested, and the Potency was inconclusive [activator, single point].
`Cc1ccc(S(=O)(=O)NC(=S)NC2CCCCC2)cc1` was tested, and the Potency was “inactive”.
With `COc1ccc(-n2nc(C(=O)NCC(=O)NCCCN3CCCCCC3)c3ccccc3c2=O)cc1Cl` the Potency was inconclusive [activator, partial curve].
With `Cc1ccc(SC(C)C(=O)Nc2ccccc2-c2ccccc2)cc1` (centres undefined) the Potency was inconclusive [activator, single point].
`COc1ccc(/C=C2\SC(=S)N(N3C(=O)CCC3=O)C2=O)cc1O` was tested, and the Potency was inconclusive [inhibitor, single point].
`O=C1OCCN1C(=O)[C@H]1[C@H](c2ccc(F)cc2)C(c2ccccc2)=NN1c1ccc(Br)cc1` was tested, and the Potency was inconclusive [activator, partial curve].
With `CC(=O)c1ccsc1-c1c(C)cc2oc(=O)cc(-c3ccccc3)c2c1C` the Potency was inconclusive [activator, single point].
`Cc1ccc(/C=c2\sc3n(c2=O)CN(c2ccc(Br)cc2)CN=3)o1` was tested, and the Potency was “inactive”.
With `Cc1nc(-c2ccc(-c3ccc(C(=O)N4CCc5cc6c(cc54)C4(CCN(C)CC4)CO6)cc3)c(C)c2)no1` the Potency was inconclusive [inhibitor, partial curve].
In the case of `CCCCn1c(SCC(=O)N2CCN(c3ccccc3)CC2)nc2ccsc2c1=O`, the Potency is reported as “inactive”.
For `CC[C@@H]1C(c2cccc(Cl)c2)=NN(c2ccc(Br)cc2)[C@H]1C(=O)N1CCOC1=O`, the Potency was inconclusive [activator, partial curve].
With `CC1(C)OC(c2ccccc2)=C/C(=C\C=N\NC(=O)c2ccncc2)O1` the Potency was inconclusive [inhibitor, partial curve].
With `Cc1cccc(C)c1NC(=O)Nc1ccccc1-n1ccnc1` the Potency was inconclusive [inhibitor, partial curve].
For `NC(=O)CC(NC(=O)Cc1cccc2ccccc12)c1ccc(N2CCc3ccccc3C2)c([N+](=O)[O-])c1` (centres undefined), the Potency was inconclusive [inhibitor, single point].
`CN(C)c1ccc(C(=S)N2CCN(c3ccccc3)CC2)cc1` was tested, and the Potency was inconclusive [inhibitor, single point].
In the case of `COc1cccc(C2C3=C(N=c4s/c(=C\c5cccc(O)c5)c(=O)n42)c2ccccc2CC3)c1OC` (centres undefined), the Potency is reported as inconclusive [inhibitor, partial curve].
With `COc1cccc(NC(=O)Cn2c(=O)n(CCC(=O)NC3CCN(Cc4ccccc4)CC3)c(=O)c3ccccc32)c1` the Potency was inconclusive [activator, full curve, poor fit].
In the case of `COc1cccc(Nc2c3c(nc4c(-c5ccccc5)c(C)nn24)CCC3)c1`, the Potency is reported as inconclusive [activator, partial curve].
`CCCCC1=CC2=C(c3ccco3)C(=O)C(C)(OC(=O)c3ccc(OC)cc3)C(=O)C2=CN1C1CC1` (centres undefined) was tested, and the Potency was inconclusive [inhibitor, single point].
`CCOc1ccc(OCCN2C(=O)NC3(CCCc4ccccc43)C2=O)cc1` (centres undefined) was tested, and the Potency was “inactive”.
In the case of `FC(F)(F)c1nc(-c2ccccc2)ncc1-c1nnnn1-c1ccccc1`, the Potency is reported as inconclusive [activator, partial curve].
`COc1ccc(S(=O)(=O)NNC(=O)C(=O)NNc2ccccn2)cc1` was tested, and the Potency was inconclusive [inhibitor, single point].
`Cc1ccc(-c2cc(C(F)F)nc(N3CCOCC3)n2)cc1` was tested, and the Potency was inconclusive [activator, single point].
`CC(Oc1ccccc1)C(=O)NNC(=O)c1ccccn1` (centres undefined) was tested, and the Potency was inconclusive [inhibitor, single point].
In the case of `CC1CCN(C(=O)C(C)Sc2nc(-c3ccccc3)cc(C(F)(F)F)n2)CC1` (centres undefined), the Potency is reported as “inactive”.
For `O=c1[nH]c2c(cnn2-c2ccc(Cl)cc2)c(=O)n1-c1cccc(Cl)c1`, the Potency was inconclusive [activator, full curve, poor fit].
`COc1cc2c(cc1OC)CN(c1nc(CN3CCOCC3)nc3sc4c(c13)CCC(C)C4)CC2` (centres undefined) was tested, and the Potency was inconclusive [inhibitor, partial curve, poor fit].
In the case of `CN(C)CC(=O)c1ccc(-c2ccccc2)cc1`, the Potency is reported as inconclusive [inhibitor, single point].
For `Cc1ccc(-n2[nH]c(C)c(/C=N/Nc3ccc([N+](=O)[O-])cc3[N+](=O)[O-])c2=O)cc1`, the Potency was inconclusive [inhibitor, full curve, poor fit].
In the case of `CC(=O)Cc1nsc(Nc2cccc(C)c2)n1`, the Potency is reported as inconclusive [activator, single point].
For `COc1ccc(-n2c(SCc3cn4c(C)cccc4n3)nc3ccccc3c2=O)cc1OC`, the Potency was inconclusive [inhibitor, single point].
In the case of `CCOC(=O)N/N=C/c1ccc(OC)c(O)c1`, the Potency is reported as inconclusive [activator, partial curve].
In the case of `O=C(NCc1ccco1)c1ccc(S(=O)(=O)N2CCOCC2)cc1`, the Potency is reported as inconclusive [inhibitor, single point].
In the case of `Cc1ccc(/C(N)=N/OC(=O)Cc2cccc3ccccc23)cc1`, the Potency is reported as inconclusive [activator, single point].
